Values joined by “and” are separate entries in the source; they are usually repeats but may differ in a detail not shown here. Equal values may be shown once. The whole screen tested about 420,000 compounds, of which about 75 (0.02%) were called active. The shares of active, inactive and inconclusive entries below differ from those in the screen. Calls follow the shape of the dose curve; as a rule, active = well fitted activation curve with a large enough effect; inconclusive = small, poorly fitted or top-dose-only effect; inactive = no such curve, though single readings can be large or run the other way. Potencies of inconclusive entries are doubtful fits and often do not repeat.
Assay: qHTS for Inducers of the Endoplasmic Reticulum Stress Response (ERSR) in Human Glioma: qHTS; also: nearly all actives have a fitted effect of over 35% in size; as to activation: % of control where 0% means no effect
Conditions: U87-MG GRP78 promoter luciferase reporter, 16 h; activation: stronger effect = higher value
In short: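 ERSR induction read as luciferase luminescence (Bright-Glo, 10 min at room temperature) in stably transfected human U87-MG glioma cells exposed to compounds for 16 h, using GRP78 as sensor.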
In the case of `Cc1ccc(Cn2c(C(CO)Nc3nc(-c4ccc(F)cc4)cs3)nc3ccccc32)cc1` (configuration not stated), the activation is reported as inactive: -1.62%.
In the case of `CCOC(=O)c1ccc(Nc2nnc(C)c3ccccc23)cc1`, the Potency is reported as inconclusive: 28.2 µM [activator, single point].
In the case of `Cc1ccc2c(Br)cc(Br)c(O)c2n1`, the Potency is reported as inconclusive: 44.7 µM [activator, single point].
In the case of `CCn1c(SCC(=O)c2cc(OC)ccc2OC)nnc1C(C)C`, the Potency is reported as inconclusive: 44.7 µM [activator, single point].
For `CCCCCCCCNC(=O)/C(C#N)=C/c1ccccc1[N+](=O)[O-]`, the Potency was inconclusive: 50.1 µM [activator, single point].
In the case of `Cc1ccc(C)c(C(=O)O/N=C(\N)c2ccc(Br)cc2)c1`, the Potency is reported as inconclusive: 7.08 µM [activator, partial curve, poor fit].
For `COC(=O)C1=C[C@@H](C(=O)OC)C2C3=C(C(=O)C24CCCCC4)[C@H](C)n2c(=O)n(-c4ccccc4)c(=O)n2[C@@H]3C1` (some centres not stated), the activation was inactive: -5.25% and inactive: -4.04%.
In the case of `COC(=O)C1=C(C)N(c2ccc(Cl)cc2)/C(=C/c2ccc(O)cc2)C1=O`, the activation is reported as inactive: -1.47%.
In the case of `CN(CC(=O)Nc1cccc(F)c1)S(=O)(=O)c1ccc2c(c1)n(C)c(=O)c(=O)n2C`, the activation is reported as inactive: -0.811%.
For `CN1CCN(C(=O)c2cnn(-c3ccc(F)cc3F)c2C2CCN(C(=O)OC(C)(C)C)CC2)CC1`, the activation was inactive: -2.14%.
In the case of `CCOC(=O)c1c(CC(C)C)csc1NC(=O)CCl`, the Potency is reported as inconclusive: 20 µM [activator, full curve, poor fit].
In the case of `CCOC(=O)c1sc(N(Cc2ccccc2)C(=O)CCl)nc1C`, the Potency is reported as inconclusive: 14.1 µM [activator, single point].
For `O=C(CSc1nnc(NC(=O)c2cccc(Br)c2)s1)NCC1CCCO1` (configuration not stated), the Potency was inconclusive: 50.1 µM [activator, single point].
In the case of `O=C(OCc1cc(=O)n2c(n1)sc1ccccc12)c1ccc(O)cc1O`, the Potency is reported as inconclusive: 28.2 µM [activator, single point].
With `CCCCCCCSc1nsc(N)n1` the activation was inactive: -3.61%.
For `Cc1ncoc1C(=O)N1CCCC(C(=O)c2ccc3c4c(cccc24)CC3)C1` (configuration not stated), the Potency was inconclusive: 28.2 µM [activator, single point].
In the case of `NC(=S)N=Nc1c(O)n(CCCl)c2ccc(Cl)cc12`, the Potency is reported as inconclusive: 17.8 µM [activator, single point].
With `COc1ccc(NC(=O)/C=C/c2ccc(Cl)cc2)cc1` the Potency was inconclusive: 0.521 µM [activator, partial curve, poor fit].
In the case of `N#C/C(=C\c1cccc(NC(=O)c2ccccc2Cl)c1)C(=O)NCCc1ccccc1`, the Potency is reported as inconclusive: 17.8 µM [activator, single point].
For `COc1ccc(C(=O)c2sc(NC(C)C)nc2N)cc1OC`, the activation was inactive: -9.31%.
With `CCOC(=O)CC(=O)CSc1nc2c(cc1C#N)CCC2` the Potency was inconclusive: 31.6 µM [activator, partial curve].
With `CCSc1nnc(-c2cccnc2)n1-c1ccc(Cl)c(C)c1` the Potency was inconclusive: 5.62 µM [activator, single point].
With `C[C@@H]1O[C@H]2C3=C(C(=O)[C@H]4O[C@@H]4[C@H]3O)[C@@H]1[C@@H]1[C@@H](C)OC=C3[C@H](O)[C@H]4O[C@@H]4/C(=N\OCc4ccccc4)[C@]312` the Potency was inconclusive: 11.2 µM [activator, single point].
For `Cc1cccc(C(=O)NNC(=S)NC(=O)c2ccccc2)c1`, the Potency was inconclusive: 44.7 µM [activator, single point].
For `O=C(CSc1nc2ccccc2n1Cc1ccc(F)cc1)N1CCN(c2ccc(F)cc2)CC1`, the Potency was inconclusive: 28.2 µM [activator, single point].
In the case of `COc1ccccc1OCCNC(=O)C1CCCCC1`, the activation is reported as inactive: -0.441%.
With `COc1ccc(F)cc1C(=O)C1CCCN(Cc2cccn2-c2ccccn2)C1` (configuration not stated) the activation was inactive: -3.84%.
In the case of `CCN(CC)CCC(=O)N1c2ccccc2CCc2ccc(NC(=O)OC)cc21`, the Potency is reported as inconclusive: 14.1 µM [activator, full curve, poor fit].
In the case of `COC(=O)c1c(C)[nH]c(C=O)c1-c1ccccc1`, the Potency is reported as inconclusive: 5.01 µM [activator, full curve, poor fit].
In the case of `O=C(c1ccco1)N1CCN(C(=O)c2ccc(-c3ccccc3Cl)o2)CC1`, the Potency is reported as inconclusive: 10 µM [activator, partial curve, poor fit].
With `O=C(c1ccccc1)n1c(=O)c(F)cn(COCCBr)c1=O` the Potency was inconclusive: 39.8 µM [activator, partial curve, poor fit].
For `COC(=O)CNC(=O)Cn1c(=O)n(Cc2ccc(F)cc2)c(=O)c2sccc21`, the Potency was inconclusive: 50.1 µM [activator, single point].
For `Cc1ccc(CN2C(=O)C(CC(C)C)Nc3ncnc(N4CCN(c5ccccc5)CC4)c32)cc1` (configuration not stated), the activation was inactive: -2.05% and inactive: -0.848%.
For `Cc1ccc(C(=O)N/N=C/c2ccc(-c3ccc(Br)cc3[N+](=O)[O-])o2)o1`, the activation was inactive: 1.5%.
In the case of `CC(C)c1ccc(-c2nn(-c3ccccc3)cc2C2C(C#N)=C(N)OC3=C2C(=O)CC(C)(C)C3)cc1` (configuration not stated), the Potency is reported as inconclusive: 50.1 µM [activator, single point].
For `CCOc1ccc(C(C)=O)cc1COc1ccc(C)nc1[N+](=O)[O-]`, the activation was inactive: -5.95%.
In the case of `CN1CCc2c(c3ccccc3n2C)C1`, the activation is reported as inactive: -4.23%.
With `CCCCCOC(=O)CSc1nnc(-c2cc(OC)c(OC)c(OC)c2)o1` the Potency was inconclusive: 22.4 µM [activator, single point].
In the case of `CCCCOC(=O)NS(=O)(=O)c1sc(CC(C)C)cc1-c1ccc(Cn2c(CC)nc3c(C)cc(C)nc32)cc1`, the Potency is reported as inconclusive: 46.5 µM [activator, partial curve, poor fit].
In the case of `CC1=C(C)CC(C(=O)Nc2ccc3c(c2)OCO3)C(C(=O)O)C1` (configuration not stated), the Potency is reported as inconclusive: 15.8 µM [activator, single point].
For `C[C@@H]1O[C@@H](Oc2c(-c3cc(O)c(O)c(O)c3)oc3cc(O)cc(O)c3c2=O)[C@H](O)[C@H](O)[C@H]1O`, the activation was inactive: -4.89% and inactive: -1.3%.
With `CCC(=O)NC(c1ccccc1OC)c1ccc2cccnc2c1O` (configuration not stated) the Potency was inconclusive: 28.2 µM [activator, single point].
With `CS(=O)(=O)N1CCN(c2nc3ccccc3s2)CC1` the Potency was inconclusive: 10 µM [activator, partial curve, poor fit].
For `O=C(NNC(=O)c1ccc([N+](=O)[O-])o1)c1ccccc1`, the Potency was inconclusive: 12.6 µM [activator, full curve, poor fit].
With `CCOC(=O)c1c(C)oc2c1cc(NS(=O)(=O)c1ccc(C(=O)O)cc1)c1ccccc12` the Potency was inconclusive: 35.5 µM [activator, partial curve, poor fit].
For `CCN1CCN(Cc2c(O)ccc3c2O/C(=C\C=C\c2ccccc2)C3=O)CC1`, the Potency was inconclusive: 50.1 µM [activator, partial curve, poor fit].
With `Cc1ccc(/C(N)=N/OC(=O)CCCc2ccccc2)cc1` the Potency was inconclusive: 7.08 µM [activator, full curve, poor fit].
In the case of `COc1ccc(OC)c(C2CC(=O)N3CN(c4ccccc4F)CSC3=C2C#N)c1` (configuration not stated), the activation is reported as inactive: -2.04%.
With `CCC1=NN(C(=O)c2ccccc2O)C(O)(c2ccccc2)C1` (configuration not stated) the Potency was inconclusive: 22.4 µM [activator, partial curve].
For `CCc1ccc(NC(=O)C(C)OC(=O)/C=C/c2ccc(O)c(OC)c2)cc1` (configuration not stated), the Potency was inconclusive: 50.1 µM [activator, single point].
In the case of `Cc1cccc2nc(-c3cccnc3)c(Nc3ccc(C(C)C)cc3)n12`, the Potency is reported as inconclusive: 50.1 µM [activator, single point].
With `COc1ccc(N2CCN(CCCNC(=O)C3COc4ccc(OC)cc4C3)CC2)cc1` (configuration not stated) the activation was inactive: -2.73%.
With `COc1cc(/C=C(\C#N)C(=O)Nc2ccc3c(c2)OCCO3)ccc1O` the Potency was inconclusive: 20 µM [activator, partial curve, poor fit].
For `CC1CN(S(=O)(=O)c2cccc(C(=O)NCc3ccco3)c2)CC(C)O1` (configuration not stated), the Potency was inconclusive: 50.1 µM [activator, single point].
With `Cc1cc(C)cc(NC(=O)c2nnn(Cc3cc(C)ccc3C)c2N)c1` the Potency was inconclusive: 14.1 µM [activator, full curve, poor fit].
With `Cc1nn(C(=O)c2cc3sccc3[nH]2)c(C)c1C` the Potency was inconclusive: 8.91 µM [activator, partial curve, poor fit].
With `[2H]c1c([2H])c([2H])c(C(=O)c2sc(N3CCCCCC3)nc2-c2ccccc2)c([2H])c1[2H]` the activation was inactive: 0.146%.
In the case of `COc1cc(NC(=O)CN(C)Cc2ccc(OC(F)F)cc2)c(C)cc1[N+](=O)[O-]`, the activation is reported as inactive: -2.56%.
For `COc1ccc(C(=O)NC2=Nc3ccccc3N=C(C)C2c2ccccc2)cc1` (configuration not stated), the Potency was inconclusive: 35.5 µM [activator, partial curve, poor fit].
For `COc1ccc(OC)c(S(=O)(=O)N/N=C(/C)c2ccc3c(c2)OCO3)c1`, the activation was inactive: -7.23%.
With `CCOC(=O)CSc1nc2sc3c(c2c(=O)[nH]1)CC(C)(CC)OC3` (configuration not stated) the Potency was inconclusive: 22.4 µM [activator, single point].
In the case of `CC(C)/C=C(/C(=O)c1ccc(Cl)cc1Cl)n1cncn1`, the Potency is reported as inconclusive: 50.1 µM [activator, single point].

Reference: PubChem BioAssay AID602332 (National Center for Advancing Translational Sciences (NCATS), 2012)
Potency is read from the fitted curve at half-maximal effect; tags tell the direction and shape of the fitted curve.
